PubChem BioAssay AID1645882 (National Center for Advancing Translational Sciences (NCATS), 2021)
Screen size: about 16,000 compounds; about 120 (0.75%) were called active. Roughly 4% stayed inconclusive and do not appear here. The call rests on the fitted dose curve; in most records, active means well fitted inhibition curve with a large enough effect; inconclusive means small, poorly fitted or top-dose-only effect; inactive means no such curve, though single readings can be large or run the other way. The list shows a part of the results.

What follows are compounds tested against Rap guanine nucleotide exchange factor 3 (Homo sapiens) (UniProt O95398) (assay: Validation qHTS for antagonist of cAMP-regulated guanine nucleotide exchange factor 3 (EPAC1)). Conditions: EPAC1 Rap1B-BODIPY-GDP exchange, fluorescence; activity change, negative = inhibition: at the top concentration.
Sequence of UniProt O95398 (O95398 whole entry, looked up): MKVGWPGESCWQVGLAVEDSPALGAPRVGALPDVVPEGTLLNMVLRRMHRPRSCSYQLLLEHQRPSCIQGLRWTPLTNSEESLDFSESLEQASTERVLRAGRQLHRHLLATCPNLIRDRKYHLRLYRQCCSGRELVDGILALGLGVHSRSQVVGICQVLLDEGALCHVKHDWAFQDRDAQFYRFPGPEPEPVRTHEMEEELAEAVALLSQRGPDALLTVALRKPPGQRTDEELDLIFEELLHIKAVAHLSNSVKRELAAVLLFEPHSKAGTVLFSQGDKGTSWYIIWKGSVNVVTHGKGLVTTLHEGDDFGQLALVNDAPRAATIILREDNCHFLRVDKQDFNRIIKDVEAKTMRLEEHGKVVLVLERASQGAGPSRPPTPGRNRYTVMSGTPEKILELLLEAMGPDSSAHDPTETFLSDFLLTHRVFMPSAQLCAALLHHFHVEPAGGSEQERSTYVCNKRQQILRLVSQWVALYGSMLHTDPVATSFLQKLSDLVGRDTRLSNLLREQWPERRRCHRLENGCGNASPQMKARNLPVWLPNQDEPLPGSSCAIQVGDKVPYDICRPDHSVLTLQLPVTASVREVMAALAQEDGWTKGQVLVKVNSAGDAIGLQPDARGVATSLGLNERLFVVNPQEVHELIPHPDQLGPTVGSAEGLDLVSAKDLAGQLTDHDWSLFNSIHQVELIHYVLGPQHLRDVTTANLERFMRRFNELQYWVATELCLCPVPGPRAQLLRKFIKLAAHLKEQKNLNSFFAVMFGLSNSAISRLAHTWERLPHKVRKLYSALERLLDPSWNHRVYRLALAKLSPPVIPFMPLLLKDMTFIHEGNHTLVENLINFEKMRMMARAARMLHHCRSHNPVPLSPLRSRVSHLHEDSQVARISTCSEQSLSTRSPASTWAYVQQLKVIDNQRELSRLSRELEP
Excerpt: Assay Provider (PI): Xiaodong Cheng Ph.D.
The University of Texas Medical Branch, […], TX
In multi-cellular eukaryotic organisms, the effects of cAMP are transduced by two ubiquitously-expressed intracellular cAMP receptors, the classic protein kinase A/cAMP-dependent protein kinase (PKA/cAPK) and the more recently discovered exchange protein directly activated by cAMP/cAMP-regulated guanine nucleotide exchange factor (EPAC/cAMP-GEF). Both PKA and EPAC are ubiquitously expressed in all tissues, and an increase in intracellular cAMP levels will lead to the activation of both PKA and EPAC. Therefore, careful dissections of the individual role and relative contribution of EPAC and PKA within the overall cAMP signaling in various model systems are critical for further elucidating the mechanism of cAMP signaling. To date no EPAC-specific antagonists and agonist, as well as isoform-specific agonists have been reported, and developing EPAC-specific pharmacological probes to determine the physiological functions that EPAC play in the overall cAMP-mediated signaling remains a major challenge within the research field. Furthermore, identified regulators of EPAC may lead to new mechanism-based therapeutic strategies specifically targeting the EPAC / cAMP-signaling components as EPAC has been implicated to play important roles in major human pathological conditions such as diabetes, heart disease, and cancer.
This qHTS will be used to screen the Molecular Libraries Small Molecule Repository (MLSMR) as a concentration-titration series using the NCGC unique quantitative screening (qHTS) platform to find activators for EPAC1. In addition, this assay will also be used as a counterscreen for the EPAC2 qHTS. This fluorescent based assay is developed and validated for EPAC1 that measures exchange using EPAC effector Rap1 complex with BODIPY-GDP, a GDP analog with a tethered fluorophores. Activators are identified by monitoring the change in fluorescence signal as the exchanged free BODIPY-GDP has a reduced fluorescence compared to Rap1-bound BODIPY-GDP. Increase in signal (activation) is the desired outcome for the EPAC1 agonist while no activity in this assay is desired for the EPAC2 agonist counterscreen.
[1] de Rooij, J., Zwartkruis, F. J., Verheijen, M. H., Cool, R. H., Nijman, S. M., Wittinghofer, A., and Bos, J.L. (1998) Nature 396, 474-477.
Briefly, three uL of reagents (100 nM EPAC1, 250 nM RAP1B-BODIPY-GDP, 50 uM GDP) were dispensed into a 1536-well Greiner black solid-bottom medium binding assay plate. Controls and test compounds (23 nL) were transferred to the plate via a Kalypsys pin tool equipped with a 1536-pin array. The plates were centrifuged at 1,000 rpm for 15 seconds followed by 5 minute incubation at room temperature. The assay plates were read at 5 minute intervals for 30 minutes in the ViewLux plate reader using 480nm excitation and 540nm emission filters. The results were normalized to the […] positive control ATA and DMSO.
Further: nearly all actives have a fitted effect of over 75% in size.

Structure (SMILES)	activity change, negative = inhibition
COCC(=O)N1CCC2(CCCN(Cc3ccncc3)C2)CC1	inactive: 4.19%
CCCN1CCc2cc(O)cc3c2C1Cc1ccc(O)c(O)c1-3 (stereo not drawn)	inactive: 20.9%
S=C=NCc1ccccc1	inactive: 11.3%
O=[N+]([O-])C(Br)(CO)CO	inactive: 5.33%
ClC(Cl)=C(c1ccc(Cl)cc1)c1ccc(Cl)cc1	inactive: 12.1%
CCOC(=O)C1C(C=C(C)C)C1(C)C (stereo not drawn)	inactive: -7.22%
CCCCC/C=C\C/C=C\C/C=C\C=C\[C@H](CCCC(=O)O)OO	inactive: 16.4% [at 1.57 µM]
Oc1ccc2c3c1OC1C(O)CC[C@]4(O)C(C2)N(CC2CCC2)CC[C@]314 (stereo partly drawn)	inactive: 279%
C[N+](C)(C)CCOC(=O)CBr	inactive
Cc1sc2ccccc2c1CC1=NCCN1	inactive: -6.59% [at 75.8 µM]
CC(=O)[C@H]1CC[C@H]2[C@@H]3CC[C@H]4C[C@](C)(O)CC[C@]4(C)[C@H]3CC[C@]12C	inactive
NC1=NC(=O)C(c2ccccc2)O1 (stereo not drawn)	inactive: 18%
CCOC(=O)C1(c2ccccc2)CCN(CCC(C#N)(c2ccccc2)c2ccccc2)CC1	inactive
CN(C)CCc1ccc(O)cc1	inactive
CCN(CC)C(=O)N[C@@H]1C=C2c3cccc4[nH]cc(c34)C[C@@H]2N(C)C1	inactive: 23.6%
C/C=C1/CN2CC[C@]34C(=C(C=O)[C@@H]1C[C@H]23)Nc1c(O)cccc14	inactive: 21.4%
COc1cc(CC(C)N)c(OC)cc1I (stereo not drawn)	inactive: -5.7% [at 75.8 µM]
CN1CCN(c2ncc3ncc(=O)n(C)c3n2)CC1	inactive: 13%
O=C(O)C1=CCCN(CCOC(c2ccc(C(F)(F)F)cc2)c2ccc(C(F)(F)F)cc2)C1	inactive: -21.4%
CCCCC/C=C\C/C=C\CCCCCCCC(=O)NCCO	inactive: -13.9% [at 15.3 µM]
O=C(CCl)c1ccc(Cl)cc1Cl	inactive
C#C[C@]1(O)CC[C@H]2[C@@H]3CCC4=CC(=O)CCC4=C3C=C[C@@]21CC	inactive: 15.8%
CCC1(c2ccccc2)C(=O)N(COC)C(=O)N(COC)C1=O	inactive: 12.4%

Structure (SMILES)	activity change, negative = inhibition
O=C1/C(=C\c2ccccc2)C[C@@]2(O)[C@H]3Cc4ccc(O)c5c4[C@@]2(CCN3CC2CC2)[C@@H]1O5	inactive: -10.4%
N[C@@H]1C[C@H]1c1ccccc1	inactive: 10.1%
CC(C)NCC(O)c1ccc([N+](=O)[O-])cc1 (stereo not drawn)	inactive: 37.2%
CCC(Sc1ccccc1)C(=O)OC1CC2CCC(C1)N2C (stereo not drawn)	inactive: 7.81%
COC(=O)[C@]1(C)CC[C@@]2(C)CC[C@@]3(C)C4=CC=C5C(=CC(=O)C(O)=C5C)[C@@]4(C)CC[C@@]3(C)C2C1 (stereo partly drawn)	inactive: 16.5%
C[C@H](N)Cc1c[nH]c2ccc(O)cc12	inactive: 5.6%
CN1C[C@H](C(=O)N[C@]2(C)O[C@@]3(O)[C@@H]4CCCN4C(=O)[C@H](Cc4ccccc4)N3C2=O)C=C2c3cccc4[nH]cc(c34)C[C@H]21	inactive: 25.1%
CNc1ccccc1C(=O)O	inactive: 17.1%
CN(C(=O)Cc1ccc(Cl)c(Cl)c1)[C@@H](CN1CCCC1)c1cccc(OCC(=O)O)c1	inactive: 2.58%
COc1nn(CSP(=S)(OC)OC)c(=O)s1	inactive: 45.3% [at 320 µM]
NC(N)=Nc1ccc2[nH]c3c(c2c1)C[C@]1(O)[C@@H]2Cc4ccc(O)c5c4[C@]1(CCN2CC1CC1)[C@@H]3O5	inactive: 3.01%
CC(Cc1ccccc1)NCCn1cnc2c1c(=O)n(C)c(=O)n2C (stereo not drawn)	inactive: 6.07% [at 320 µM]
O[C@H]1[C@H](O)[C@@H](O)CN2CC[C@H](O)[C@H]12	inactive: 20.1% [at 320 µM]
CC1(C)C2C[C@@H](O)[C@]3(C)C(CC[C@@]4(C)[C@H](c5ccoc5)C[C@H]5O[C@]543)[C@@]2(C)[C@@H](O)C[C@H]1O (stereo partly drawn)	inactive: 16.8%
CC(C)NC(=O)N1CC[C@@]2(CCCNC2)C1	inactive: 18.9%
C[C@]12CCC3C(CC[C@]4(O)C[C@@H](O)CC[C@]34C=O)[C@@]1(O)CC[C@@H]2C1=CC(=O)OC1 (stereo partly drawn)	inactive: 13.9%
CN1C[C@@H](CO)C=C2c3cccc4[nH]cc(c34)CC21 (stereo partly drawn)	inactive: 17.8%
C=CC(=O)NCNC(=O)C=C	inactive: 25.5% [at 320 µM]
O=C(Oc1ccccc1)N1CCC2(CCCN(Cc3nccs3)C2)CC1	inactive: 15.6%
Cn1cccc1-c1cccnc1	inactive: 38%
CC(=O)OC1CC2C(C)(C)C(O)C=C[C@@]2(C)C2CC[C@]3(C)C(=CC(=O)OC3c3ccoc3)[C@]12C (stereo partly drawn)	inactive: 0.723%
CCOP(=S)(OCC)O/N=C(\C#N)c1ccccc1	inactive: 14.1%
C=CCN1CC[C@]23c4c5ccc(O)c4O[C@@H]2C(=O)CC[C@]3(O)[C@H]1C5	inactive: 1.3%

Structure (SMILES)	activity change, negative = inhibition
C=C(C)[C@H]1CN[C@H](C(=O)O)[C@@H]1CC(=O)O	inactive: 13.3%
O=C1Nc2ccc(Cl)cc2C(c2ccccc2Cl)=NC1O (stereo not drawn)	inactive: 12.4%
CC(=O)OC1(c2ccccc2)CCN(CCc2ccccc2)CC1	inactive: 27% [at 320 µM]
Clc1cncc(N2CCNCC2)n1	inactive
CCN(CC)CCc1c[nH]c2ccccc12	inactive: 26.6% [at 320 µM]
COC1CC(=C(c2cccs2)c2cccs2)C[N+](C)(C)C1 (stereo not drawn)	inactive: 9.46%
CC(C)(C)c1o[nH]c(=O)c1C[C@H](N)C(=O)O	inactive: 8.11%
CN1CCN(C(=O)O[C@H]2c3nccnc3C(=O)N2c2ccc(Cl)cn2)CC1	inactive: 11.5%
Oc1ccc2[nH]cc(CCCCN3CC=C(c4ccccc4)CC3)c2c1	inactive: 11.1%
O=C(Cc1ccc(Cl)c(Cl)c1)N1CCCC[C@H]1CN1CCCC1	inactive: 2.89%
NC(=O)c1cc([N+](=O)[O-])cc([N+](=O)[O-])c1	inactive: 11.1%
COc1ccc2c(c1O)-c1c(OC)c(OC)cc3c1[C@H](C2)N(C)CC3	inactive: 12.6%
O=CN1CCCCC1C1CC[C@H]2CCCCN2C1 (stereo partly drawn)	inactive: 10.6%
c1ccc2sc(C3(N4CCCC4)CCCCC3)cc2c1	inactive: 23.3%
O=C1CC[C@@]2(O)[C@H]3Cc4ccc(O)c5c4[C@@]2(CCN3CC2CC2)[C@H]1O5	inactive: 18.6%
O=C(CC[N+](=O)[O-])OCC1OC(O)C(OC(=O)CC[N+](=O)[O-])[C@@H](OC(=O)CC[N+](=O)[O-])C1OC(=O)CC[N+](=O)[O-] (stereo partly drawn)	inactive: 6.61%
CC1(C)C(O)CC(O)[C@]2(C)C1CC(O)[C@]1(C)C2CC[C@@]2(C)C(c3ccoc3)CC3OC312 (stereo partly drawn)	inactive: -27.1%
Cn1c(CCCC(=O)O)nc2cc(N(CCCl)CCCl)ccc21	inactive: 17.5%
COC1=CC=C2[C@H]3Cc4ccc(OC)c5c4[C@@]2(CCN3C)[C@H]1O5	inactive
CN1CCc2cc(O)cc3c2C1Cc1ccc(O)c(O)c1-3 (stereo not drawn)	inactive: 39.7%
NC(CP(=O)(O)O)C(=O)O (stereo not drawn)	inactive
C=CCN1CC[C@]23c4c5ccc(O)c4O[C@H]2[C@@H](O)C=C[C@H]3[C@H]1C5	inactive: 22.6%
